# Data reported in article PMC4336329 (PLoS ONE, 2015).
# Hit rate of the full screen: of about 310,000 compounds, about 2,200 (0.71%) showed an effect of 50% or more. Effects have a minus sign here. Some of the results follow.
# Target: human ether-à-go-go-related gene (hERG) potassium channel (human, UniProt Q12809)
# Experiment: primary screen, population patch clamp on CHO cells stably expressing hERG
# Sequence of human ether-à-go-go-related gene (hERG) potassium channel (Q12809 whole entry, looked up): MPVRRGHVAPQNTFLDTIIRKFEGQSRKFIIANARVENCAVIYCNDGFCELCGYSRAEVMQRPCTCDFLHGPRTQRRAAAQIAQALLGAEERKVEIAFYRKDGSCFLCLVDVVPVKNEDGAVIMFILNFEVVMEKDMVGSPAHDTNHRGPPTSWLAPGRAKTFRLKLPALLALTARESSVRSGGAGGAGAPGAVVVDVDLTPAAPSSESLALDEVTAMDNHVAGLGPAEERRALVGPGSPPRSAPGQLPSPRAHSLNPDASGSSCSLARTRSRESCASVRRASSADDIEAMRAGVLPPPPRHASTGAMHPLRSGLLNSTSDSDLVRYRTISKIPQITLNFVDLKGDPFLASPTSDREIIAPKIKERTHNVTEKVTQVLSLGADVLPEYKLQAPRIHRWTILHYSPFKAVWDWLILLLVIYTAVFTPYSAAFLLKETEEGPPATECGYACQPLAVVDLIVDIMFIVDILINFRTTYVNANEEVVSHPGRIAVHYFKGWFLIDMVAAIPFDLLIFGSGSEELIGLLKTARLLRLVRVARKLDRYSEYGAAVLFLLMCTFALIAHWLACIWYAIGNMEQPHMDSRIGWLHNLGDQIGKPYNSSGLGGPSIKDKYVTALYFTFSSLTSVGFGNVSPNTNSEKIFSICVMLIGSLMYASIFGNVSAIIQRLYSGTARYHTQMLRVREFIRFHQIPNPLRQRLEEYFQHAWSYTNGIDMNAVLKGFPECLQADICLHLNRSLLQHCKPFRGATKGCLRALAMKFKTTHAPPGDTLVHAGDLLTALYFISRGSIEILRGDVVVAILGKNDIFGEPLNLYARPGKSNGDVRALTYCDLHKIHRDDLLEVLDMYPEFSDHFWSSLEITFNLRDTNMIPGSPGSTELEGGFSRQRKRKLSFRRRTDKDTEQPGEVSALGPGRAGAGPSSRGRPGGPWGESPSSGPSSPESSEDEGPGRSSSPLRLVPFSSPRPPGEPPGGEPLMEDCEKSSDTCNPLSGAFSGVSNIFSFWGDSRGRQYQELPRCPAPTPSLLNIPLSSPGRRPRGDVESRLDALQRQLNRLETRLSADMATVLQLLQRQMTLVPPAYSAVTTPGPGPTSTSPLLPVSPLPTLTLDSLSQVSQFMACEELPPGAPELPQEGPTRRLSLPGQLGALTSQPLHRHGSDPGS
row,SMILES,"hERG current change (%, negative = inhibition) at 1uM"
1,Cc1ccc(-c2nc(SCC(=O)Nc3cc(S(=O)(=O)N4CCCCC4)ccc3Cl)n[nH]2)cc1,10.2%
2,CCOc1ccccc1Nc1nnc(C)c(=O)[nH]1,9.41%
3,Cn1c(O)c(N=NC(=O)CNC(=O)c2ccco2)c2ccccc21,10.5%
4,O=C(N/C(=C\c1cccc(Br)c1)C(=O)N1CCCCC1)c1ccco1,8.69%
5,CC1(C)OC(=O)C(=Cc2ccc[nH]2)C(=O)O1,5.85%
6,COc1ccccc1CCc1nnc(CCC(=O)NC(C)Cc2cccnc2)o1 (centres unmarked),6.99%
7,Cc1ccc(C(=O)Nc2ccc(CN3CCCCC3)cc2)c(C)c1,-24.5%
8,O=C(COc1cccc(Cl)c1)Nc1ccc(N2CCOCC2)cc1,19.9%
9,O=C(COc1ccc([N+](=O)[O-])cc1)NNC(=O)c1cccnc1,14.3%
10,COc1ccc(OC)c(/C=N\NC(=O)c2ccc(COc3ccc(C)cc3[N+](=O)[O-])o2)c1,17.4%
11,CNc1nc(SCC(=O)OC)nc(N2CCOCC2)n1,9.12%
12,O=C1CCc2cc(S(=O)(=O)NC3CCCCC3)ccc2N1,-0.715%
13,OC1(c2cccnc2)CCN(Cc2nnnn2Cc2ccccc2)CC1,9.19%
14,COC(=O)C1=C(c2cccc(C#N)c2)C[C@@H]2CC[C@H]1N2C(=O)NCCOc1ccccc1Cl,13.4%
15,Cl.O=C1CC(c2ccccc2)CC2=C1CN(C1CCCCC1)CN2 (centres unmarked),17.9%
16,O=C(N/C(=C\c1ccco1)C(=O)N1CCC(O)CC1)c1ccccc1,19.2%
17,CC(Cc1cccs1)NC(=O)Nc1ccc(F)cc1 (centres unmarked),21.4%
18,CCC(C)NC(=O)NC(=O)CSc1nnc(-c2ccccc2F)n1C1CC1 (centres unmarked),3.07%
19,Cc1cc(=O)[nH]c(SCCOc2ccc3c(c2)CCC3)n1,11.7%

row,SMILES,"hERG current change (%, negative = inhibition) at 1uM"
1,Cc1cccc(-n2c(=O)[nH]c3c(C(N)=O)nc(-c4ccccc4Cl)nc32)c1,6.62%
2,O=C1C=C(c2ccc(-c3ccccc3)cc2)C[C@@H](c2ccc(Cl)cc2)C1,15.9%
3,CCn1c(=O)c(C(=O)CN2CCCc3ccccc32)c(N)n(Cc2ccccc2)c1=O,-1.39%
4,CC(=O)N(/N=C/c1ccc(C)cc1)c1nc(CCl)cs1,2.73%
5,CC(CNCc1ccc2c(c1)OCO2)NCc1ccc2c(c1)OCO2 (centres unmarked),-17.1%
6,COc1ccc(C(CC(=O)[O-])NS(=O)(=O)c2ccc(C)cc2)cc1.[Na+] (centres unmarked),-8.47%
7,COc1ccc(C2SCCN2S(=O)(=O)c2ccc(NC(C)=O)cc2)cc1 (centres unmarked),6.12%
8,Cc1cc(C)c2oc(-c3ccc(Cl)c(NC(=O)c4ccc(C#N)cc4F)c3)nc2c1,-3.25%
9,O=C(O)C1CC=CCC1C(=O)N1CCN(c2nc(-c3ccccc3Cl)c3cc(Br)ccc3n2)CC1 (centres unmarked),10.5%
10,O=C(Nc1ccc(-c2ccc3nncn3n2)cc1)C1CCCC1,6.28%
11,CCOC(=O)C1CCN(CC(=O)Nc2ccc(S(=O)(=O)N3CCC(C)CC3)cc2)CC1,12.3%
12,Cc1ccc(OCCCC(=O)Nc2ccc(Cl)c(S(=O)(=O)N3CCOCC3)c2)cc1,5.04%
13,COCc1nnc(NC(=O)CCS(=O)(=O)c2ccccc2)s1,15.4%
14,CCSc1nnc(NC(=O)C(Cc2ccccc2)n2cccc2)s1 (centres unmarked),4.39%
15,Cc1cc(C)cc(C(=O)N2CCN=C2SCc2ccc([N+](=O)[O-])cc2)c1,9.72%
16,O=c1[nH]c2cc3c(cc2cc1CN(CCc1ccccc1)Cc1nnnn1CC1CCCO1)OCO3 (centres unmarked),-6.08%
17,COc1ccc(NC(=O)C2=CC(c3ccc(C)cc3)=NS(=O)(=O)N2C)cc1,8.61%
18,COc1ccc(/C=N/NC(=O)c2ccncc2)cc1CN1CCN(c2ccc(F)cc2)CC1,-54.2%
19,Cc1ccc(CNC(=O)Cc2ccc(Br)cc2)cc1,16.4%

row,SMILES,"hERG current change (%, negative = inhibition) at 1uM"
1,CCCNC(=O)C1CCN(S(=O)(=O)c2ccc3c(c2)OCCO3)CC1,2.83%
2,COCCCNC(=S)NCCc1ccc(F)cc1,11.6%
3,CCC(C)NCCCCOc1ccc(Br)cc1.O=C(O)C(=O)O (centres unmarked),-0.232%
4,Cc1ccc(-n2[nH]c(C)c(C=Nc3ccc(S(=O)(=O)Nc4nccs4)cc3)c2=O)cc1C,10.3%
5,Cc1ccc(S(=O)(=O)CCC(=O)Nc2ccc(Br)cc2)cc1,9.15%
6,CCCSc1nnc(-c2cnn(-c3ccccc3)c2-n2cccc2)n1C,-3.65%
7,COc1cccc(CNC(=O)c2ccc(CS(=O)(=O)Cc3ccccc3C)o2)c1,9.33%
8,CCc1ccc2c(CN3CCOCC3)cc(=O)oc2c1,-4.5%
9,NC(=S)Nc1cccc(O)c1,10.2%
10,C/C(=N\NC(=O)c1cccc2ccccc12)c1cccs1,1.5%
11,COc1ccc(CNC(=O)COC(=O)c2ccc(OCc3c(C)noc3C)cc2)cc1OC,16.6%
12,C[C@]12C(=O)N(c3ccc(Cl)cc3)C(=O)N1[C@@H]1c3ccccc3OC[C@@H]1[C@H]2c1ccccc1,10.9%
13,Cc1oc(/N=C/c2ccc(O)cc2O)c(C#N)c1C,16%
14,COc1ccccc1-c1cc(C(=O)N2CCCCC2)no1,1.25%
15,COc1ccc(Oc2nc3c(c(=O)n(C)c(=O)n3C)n2C)cc1,18.2%
16,CN(CCc1ccccn1)C(=O)CCC1CCCN(C(=O)c2c3c(nn2C)CCCC3)C1 (centres unmarked),9.24%
17,CCCCOc1ccc(C(=O)NCC(=O)NC2CCC(C)CC2)cc1 (centres unmarked),-4.83%
18,CCc1ccc(-c2csc(-c3c[nH]c4ccccc34)n2)cc1,6.97%
